From paper PMC4336329 (PLoS ONE, 2015)
The campaign covered roughly 310,000 compounds. About 2,200 (0.71%) showed an effect of 50% or more. The effect is printed as a negative number. The list shows a part of the results.

Biological target: human ether-à-go-go-related gene (hERG) potassium channel (human, UniProt Q12809)
Assay: primary screen, population patch clamp on CHO cells stably expressing hERG

Sequence of human ether-à-go-go-related gene (hERG) potassium channel (Q12809 whole entry, looked up): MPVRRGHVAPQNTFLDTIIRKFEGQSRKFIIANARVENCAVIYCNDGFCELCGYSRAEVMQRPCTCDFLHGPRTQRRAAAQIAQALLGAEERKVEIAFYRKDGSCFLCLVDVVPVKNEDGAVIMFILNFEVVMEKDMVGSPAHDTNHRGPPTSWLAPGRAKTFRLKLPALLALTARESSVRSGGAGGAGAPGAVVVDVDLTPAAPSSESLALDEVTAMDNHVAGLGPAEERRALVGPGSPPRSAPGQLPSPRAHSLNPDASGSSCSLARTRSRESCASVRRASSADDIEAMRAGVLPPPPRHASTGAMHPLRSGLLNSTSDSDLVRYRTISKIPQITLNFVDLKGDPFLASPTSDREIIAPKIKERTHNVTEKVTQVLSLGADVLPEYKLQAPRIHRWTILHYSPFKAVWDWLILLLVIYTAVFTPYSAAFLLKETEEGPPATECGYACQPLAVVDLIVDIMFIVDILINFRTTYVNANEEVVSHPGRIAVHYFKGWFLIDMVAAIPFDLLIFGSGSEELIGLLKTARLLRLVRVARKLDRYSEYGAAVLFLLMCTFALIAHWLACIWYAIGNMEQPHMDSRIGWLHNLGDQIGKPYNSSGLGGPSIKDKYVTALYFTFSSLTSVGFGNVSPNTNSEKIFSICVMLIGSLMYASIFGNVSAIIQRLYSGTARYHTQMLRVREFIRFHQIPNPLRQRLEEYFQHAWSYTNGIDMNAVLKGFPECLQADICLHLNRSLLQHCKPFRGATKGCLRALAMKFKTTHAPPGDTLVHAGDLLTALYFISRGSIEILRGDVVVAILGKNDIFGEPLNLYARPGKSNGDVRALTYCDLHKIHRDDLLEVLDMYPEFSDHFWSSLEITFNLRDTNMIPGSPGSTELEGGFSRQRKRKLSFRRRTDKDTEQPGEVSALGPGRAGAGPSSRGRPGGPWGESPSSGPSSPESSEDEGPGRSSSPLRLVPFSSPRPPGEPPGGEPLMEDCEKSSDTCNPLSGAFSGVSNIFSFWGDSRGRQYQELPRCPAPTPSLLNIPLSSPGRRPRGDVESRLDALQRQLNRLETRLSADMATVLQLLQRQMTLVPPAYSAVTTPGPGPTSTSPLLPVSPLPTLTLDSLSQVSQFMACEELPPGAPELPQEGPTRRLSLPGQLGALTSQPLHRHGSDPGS

Structure (SMILES)	hERG current change (%, negative = inhibition) at 1uM [%]
COc1cc(C2C(C#N)=C(N)OC3=C2C(=O)CC(C)(C)C3)cc([N+](=O)[O-])c1O (centres unmarked)	4.65
CCn1c(=O)c2ccccc2n(Cc2ccccc2C)c1=O	5.67
Cn1ccc(NC(=O)Nc2cccc(C(F)(F)F)c2)n1	3.18
CCN(CC)S(=O)(=O)c1ccc(Cl)c(NC(=O)c2ccncc2)c1	-19.1
Cc1cc(=O)oc2cc(OCC(=O)c3ccccc3)ccc12	14.7
CC1(C)Cc2c(sc(NC(=O)Nc3ccccc3)c2C(N)=O)CO1	11.1
Cc1ccc(OCC(=O)NCCCNC(=O)c2ccco2)cc1C	7.48
CC(NC(=O)c1ccc(C(C)(C)C)cc1)C(c1cccs1)N1CCOCC1 (centres unmarked)	4.6
CC(C)c1nnc(NC(=O)CCC2CCCCC2)s1	16
Cc1nnc(NC(=O)CN2CCN(Cc3ccc(F)cc3Cl)CC2)s1	9.56
COc1cc2c(cc1O)CCN(C(=O)CSc1nncn1C)[C@@H]2C	10.7
CCN1CCN(C(=O)CCc2ccc(S(=O)(=O)NCCc3ccccc3)cc2)CC1	10.8
CC(=O)Nc1ccc(NC(=O)c2ccccc2N(C)S(=O)(=O)c2ccccc2)cc1	19.2
Cc1ccc(C(=O)CSC2=C(C#N)C(c3ccco3)C3=C(CCCC3=O)N2)cc1 (centres unmarked)	-5.42
COc1ccc2oc(C(=O)NN3C(C)CCCC3C)c(C)c2c1 (centres unmarked)	19
COc1ccccc1CNC(=S)Nc1ccc(F)cc1	13.1
Cc1ccc(NC(=O)CSc2nnc(-c3ccccn3)n2N)c(Br)c1	-6.61
Cc1ccc(S(=O)(=O)N2CCCCC2CCNC(=O)C(=O)NCc2cccnc2)cc1 (centres unmarked)	5.42
C/C(N)=N\S(=O)(=O)c1ccc(Cl)cc1	13
Cn1cc(C(=O)c2cccc(Cl)c2)cc1/C=N\O	3.57
COC(=O)c1onc(C(=O)c2ccccc2)c1C(=O)OC	10.8
COc1ccc(S(=O)(=O)N2CCc3ccccc32)cc1C(=O)OCc1c(C)noc1C	1.96
CCOc1ccccc1NC(=O)N1CCCC1C(=O)Nc1ccc(-n2cnnn2)c(C)c1 (centres unmarked)	-1.11

Structure (SMILES)	hERG current change (%, negative = inhibition) at 1uM [%]
CCCCn1c(N)c(N(CC(C)C)C(=O)c2ccc(-c3ccc(C(C)=O)cc3)o2)c(=O)[nH]c1=O	10.8
CCn1c(CC(=O)Nc2ccc(F)cc2)nnc1SCC(=O)NC1=NCCS1	13.8
CC(=O)Nc1ccc(C(=O)OC2CCOC2=O)cc1 (centres unmarked)	10.5
O=C(CC1CS(=O)(=O)CC1CC(=O)Oc1ccccc1F)Oc1ccccc1F (centres unmarked)	12.3
COc1ccc(NC(=S)N2CCN(c3ccc([N+](=O)[O-])cc3)CC2)cc1OC	-82.2
COc1ccc(OCC(=O)Nc2nnc(S(=O)(=O)N3CCCCCC3)s2)cc1	18.1
CCOc1ccc2nc(NC(=O)c3c([N+](=O)[O-])cnn3CC)sc2c1	10.4
CCCCN(C(=O)c1ccccc1OCc1ccc(F)cc1)c1c(N)n(CCC)c(=O)[nH]c1=O	10.3
Cn1c(CO)nc2c3ccccc3ccc21	19.6
COc1cccc(-c2ncc3ccccc3c2COC(=O)N(C)C)c1	7.62
Cc1cc(C)c(C)c(OCCN2CCOCC2)c1	7.61
Cc1ccc(NC(=O)C(=O)NCCCN2CC(C(=O)O)CC2=O)cc1 (centres unmarked)	10.2
CCC(C)Nc1cc(C)c(C#N)c2nc3ccccc3n12 (centres unmarked)	1.9
CCN(CC)C(=O)NCc1c(C)cc(C)cc1C	12.4
O=C(Cn1nnc2ccccc21)Nc1ccc([N+](=O)[O-])cc1	16.1
Cl.O=C(Nc1ccc(N2CCN(Cc3ccccc3F)CC2)cc1)c1ccccc1[N+](=O)[O-]	2.83
COc1ccccc1NC(=O)c1sc2nc(C)cc(C)c2c1N	7.66
CCOC(=O)C(=O)C1=C(N2CCOCC2)/C(=C\c2cccc([N+](=O)[O-])c2)CC1	-6.27
CC1CN(C(=O)C2(C)CC2(Br)Br)CC(C)O1 (centres unmarked)	-0.389
COC(=O)CCC(=O)Nc1ccc(S(=O)(=O)Nc2nc(C)cc(C)n2)cc1	11.5
O=C(CN1CCC(C(=O)c2ccc3c(c2)OCCO3)CC1)NCc1ccccc1	7.23
COCCn1c(SCC(=O)/C=C2\N(C)c3ccccc3C2(C)C)nnc1-c1ccncc1	-19.3
O=C(CSc1nccc(=O)[nH]1)Nc1ccc(S(=O)(=O)N2CCOCC2)cc1	10.5

Structure (SMILES)	hERG current change (%, negative = inhibition) at 1uM [%]
COc1ccc(CCNC(=O)C(=O)NCC2CCCN2S(=O)(=O)c2cccs2)cc1OC (centres unmarked)	-1.78
CNC(=S)N/N=C/c1c(C)c(C(=O)c2ccc(F)cc2)n2ccccc12	12.9
S=C1NC(c2ccccc2)=NCN1c1ccc(Cl)cc1	5.04
COc1ccc(-c2cc3nc(C)cc(N4CC(C)CC(C)C4)n3n2)cc1 (centres unmarked)	8.98
COc1ccc(Br)cc1/C=N/NC(=O)CNC(=O)c1cccnc1	22.4
Clc1cccc(NCc2nnc3n2CCCCC3)c1	10.3
CCOC(=O)c1cc(NC(=O)CSCCO)ccc1Cl	3.13
COc1cccc(C(=O)c2c[nH]c(C(=O)NCc3ccco3)c2)c1	2.28
S=c1[nH]nc(-c2cccc(Cl)c2)n1Cc1ccccc1	9.23
Cc1nn(-c2ccccc2)c(C)c1/C=N/n1c(-c2ccncc2)n[nH]c1=S	13.6
O=C(CN1C(=O)C2CC=CCC2C1=O)NCc1ccc2c(c1)OCO2 (centres unmarked)	13.2
CCN(CC)C(=O)CSc1nc(OC)cc(=O)[nH]1	-15.8
CC(=O)Nc1ccc(NC(=O)C(C)OC(=O)CN(C)S(=O)(=O)c2ccc(Cl)cc2)cc1 (centres unmarked)	14.2
NNC(=O)c1ccccc1-n1cccc1	7.59
COc1ccc(NC(=O)CSC2CC(=O)N(c3ccc4c(c3)OCCO4)C2=O)cc1 (centres unmarked)	5.42
O=c1[nH]c2cc3c(cc2cc1CN(CCO)S(=O)(=O)c1ccccc1)OCCO3	4.77
CC1(C)N([O-])C(c2cccs2)=C[N+]1=O	6.3
COc1cc(C(=O)OC(C)C(=O)NCC2CCCCC2)cc(NC(=O)c2ccco2)c1OC (centres unmarked)	9.53
Cc1cc(NC(=O)CSCC(=O)Nc2cccc(S(=O)(=O)N3CCCCCC3)c2)no1	3.35
COc1ccc(NS(=O)(=O)c2ccc3c(c2)N(C(C)=O)CCS3)cc1	4.11
Cc1ccccc1Cn1ccc(-c2ccc(Cl)cc2)c(C#N)c1=O	0.652
O=C(O)CSc1c(-c2cccs2)[nH]c2ccccc12	3.3
Cc1c(NC(=O)COC(=O)/C=C/c2cccc(Cl)c2)c(=O)n(-c2ccccc2)n1C	1.01

Structure (SMILES)	hERG current change (%, negative = inhibition) at 1uM [%]
COc1ccccc1NS(=O)(=O)c1ccc(N2CCOCC2)c(NC(=O)c2ccco2)c1	7.66
CNC(=S)NC1CC2CCC(C1)N2Cc1ccccc1 (centres unmarked)	3.28
CC(=O)N(C)c1ccc(OCC(O)CN(Cc2ccco2)S(=O)(=O)c2ccc(C)cc2)cc1 (centres unmarked)	-3.56
CC(C)(C)C(=O)CSc1ccc(S(=O)(=O)N2CCCC2)cn1	0.498
CCO[C@@H]1OC(C(=O)N2CCN(Cc3ccccc3)CC2)=C[C@H](c2ccc(Br)cc2)[C@H]1CCCO	6.88
Cc1ccc(C)c(-c2nnc(NC(=O)C3=COCCO3)o2)c1	10.8
Cc1ccc(OCC(=O)NNC(=O)CSc2ncnc3sc(C)c(C)c23)cc1	10.2
Cc1ccc2nc(Cl)c3cc(C(=O)N(CCN(C)C)Cc4ccco4)sc3c2c1	3.17
CC1CCCCC1NS(=O)(=O)c1ccc2c(c1)CCC(=O)N2 (centres unmarked)	6.32
CNC(=O)c1ccc(NC(=O)C2CCN(S(=O)(=O)c3cccc(C(F)(F)F)c3)CC2)cc1	6.57
Nc1cc(C(=O)OCC(=O)NNC(=O)c2ccccc2)ccc1Cl	14.9
COc1ccc(/C=C/C(=O)NC(=S)Nc2cc3oc4ccccc4c3cc2OC)cc1	7.88
CCCC(=O)Nc1nc2nc(-c3ccccc3)cc(=O)n2[nH]1	13.1
COc1ccc(C2C(C(=O)NCCN(C)C)c3ccccc3C(=O)N2C)cc1OC (centres unmarked)	11.8
COc1ccc2nc(-c3ccccc3)nc(SCC(=O)NCC3CCCO3)c2c1 (centres unmarked)	16.9
CCN(CC)S(=O)(=O)c1ccc(O)c(NS(=O)(=O)c2ccccc2F)c1	18.4
CCOC(=O)CSc1nnc(Cn2c(=O)sc3ccccc32)n1C	-3.18
CCOc1ccc(N(CC(=O)NCc2ccc(OC)cc2)S(C)(=O)=O)cc1	9
COc1cccc(NC(=O)N2CCC(N3CCCCC3)CC2)c1	8.7
CC(=O)N1CCc2cc(S(=O)(=O)NC(Cc3ccccc3)C(=O)O)ccc21 (centres unmarked)	9.82
